Some of the results follow. The list includes weakly bound sequences.

In the experiment the target is T1, MBP-FoxP3dN (UniProt Q99JB6).
T1 sequence: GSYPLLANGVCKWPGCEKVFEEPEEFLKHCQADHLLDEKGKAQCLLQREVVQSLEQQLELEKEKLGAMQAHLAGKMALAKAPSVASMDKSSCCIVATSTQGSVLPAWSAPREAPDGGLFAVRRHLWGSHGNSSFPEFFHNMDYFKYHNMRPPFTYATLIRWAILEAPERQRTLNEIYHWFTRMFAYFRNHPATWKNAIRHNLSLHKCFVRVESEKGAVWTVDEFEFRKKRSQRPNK
Put plainly: PD-seq (MBP pull-down with sequencing). The settings on record: 20 mM Tris-HCl pH 7.5, 100 mM NaCl, 1.5 mM MgCl2, 0.4 uM protein, 0.1 uM dsDNA library, 30 min, room temperature, amylose pull-down; high values mean tight binding; double strand, one strand shown.
Consider “GATGATTGTTCTCCCAGCTGATGAATTAGTGTAATCGAGTAAACAAATTTTCCTAATCTTTCTGTTCAAGCGCCATCTAC”, for which the binding signal (RPM ratio (pull-down/input)) came to 1.7.
For “GATGATTGTTCTCCCAGCTGATGAATTTCCCCTGTCGAGTAAACAAATTTTCCTAATCTTTCTGTTCAAGCGCCATCTAC”, the binding signal (RPM ratio (pull-down/input)) was 0.2.
For the sequence “GATGATTGTTCTCCCAGCTGATGAATTGAGCACTTCGAGTAAACAAATTTTCCTAATCTTTCTGTTCAAGCGCCATCTAC”, the binding signal (RPM ratio (pull-down/input)) stood at 0.657.
The same measure for “GATGATTGTTCTCCCAGCTGATGAATTTGATGCTTCGAGTAAACAAATTTTCCTAATCTTTCTGTTCAAGCGCCATCTAC”: 3.44; for “GATGATTGTTCTCCCAGCTGATGAATTCCTCGAGTCGAGTAAACAAATTTTCCTAATCTTTCTGTTCAAGCGCCATCTAC”: 0.216; for “GATGATTGTTCTCCCAGCTGATGAATTAAGGTGGTCGAGTAAACAAATTTTCCTAATCTTTCTGTTCAAGCGCCATCTAC”: 0.367.
The same measure for “GATGATTGTTCTCCCAGCTGATGAATTCGCGTGTTCGAGTAAACAAATTTTCCTAATCTTTCTGTTCAAGCGCCATCTAC”: 1.44; for “GATGATTGTTCTCCCAGCTGATGAATTAGAGGTATCGAGTAAACAAATTTTCCTAATCTTTCTGTTCAAGCGCCATCTAC”: 0.573.
The same measure for “GATGATTGTTCTCCCAGCTGATGAATTCTTTCTGTCGAGTAAACAAATTTTCCTAATCTTTCTGTTCAAGCGCCATCTAC”: 0.203; for “GATGATTGTTCTCCCAGCTGATGAATTATACAGATCGAGTAAACAAATTTTCCTAATCTTTCTGTTCAAGCGCCATCTAC”: 0.39; for “GATGATTGTTCTCCCAGCTGATGAATTCATTTACTCGAGTAAACAAATTTTCCTAATCTTTCTGTTCAAGCGCCATCTAC”: 3.24.
As to “GATGATTGTTCTCCCAGCTGATGAATTCACTCCGTCGAGTAAACAAATTTTCCTAATCTTTCTGTTCAAGCGCCATCTAC”, the binding signal (RPM ratio (pull-down/input)) was 0.245.
Take “GATGATTGTTCTCCCAGCTGATGAATTATCATCCTCGAGTAAACAAATTTTCCTAATCTTTCTGTTCAAGCGCCATCTAC”: the binding signal (RPM ratio (pull-down/input)) is 0.437.
The figure for “GATGATTGTTCTCCCAGCTGATGAATTCCCGGTCTCGAGTAAACAAATTTTCCTAATCTTTCTGTTCAAGCGCCATCTAC” is 0.253.
The figure for “GATGATTGTTCTCCCAGCTGATGAATTCCAGGGCTCGAGTAAACAAATTTTCCTAATCTTTCTGTTCAAGCGCCATCTAC” is 0.233; for “GATGATTGTTCTCCCAGCTGATGAATTCACGGGATCGAGTAAACAAATTTTCCTAATCTTTCTGTTCAAGCGCCATCTAC” it is 0.217; for “GATGATTGTTCTCCCAGCTGATGAATTGGCGACATCGAGTAAACAAATTTTCCTAATCTTTCTGTTCAAGCGCCATCTAC” it is 0.744.
The same measure for “GATGATTGTTCTCCCAGCTGATGAATTGCCCTCGTCGAGTAAACAAATTTTCCTAATCTTTCTGTTCAAGCGCCATCTAC”: 0.459.
“GATGATTGTTCTCCCAGCTGATGAATTGTAGGCGTCGAGTAAACAAATTTTCCTAATCTTTCTGTTCAAGCGCCATCTAC”: the binding signal (RPM ratio (pull-down/input)) stood at 0.778.
For “GATGATTGTTCTCCCAGCTGATGAATTACCGTCTTCGAGTAAACAAATTTTCCTAATCTTTCTGTTCAAGCGCCATCTAC”, the binding signal (RPM ratio (pull-down/input)) turned out to be 0.447.
On to “GATGATTGTTCTCCCAGCTGATGAATTGCTCGTGTCGAGTAAACAAATTTTCCTAATCTTTCTGTTCAAGCGCCATCTAC”, for which the binding signal (RPM ratio (pull-down/input)) was 0.583.
The figure for “GATGATTGTTCTCCCAGCTGATGAATTAATGGAGTCGAGTAAACAAATTTTCCTAATCTTTCTGTTCAAGCGCCATCTAC” is 0.304; for “GATGATTGTTCTCCCAGCTGATGAATTCACACTATCGAGTAAACAAATTTTCCTAATCTTTCTGTTCAAGCGCCATCTAC” it is 0.504.
For the sequence “GATGATTGTTCTCCCAGCTGATGAATTTGCACATTCGAGTAAACAAATTTTCCTAATCTTTCTGTTCAAGCGCCATCTAC”, the binding signal (RPM ratio (pull-down/input)) was 0.843.
“GATGATTGTTCTCCCAGCTGATGAATTTTCGCTGTCGAGTAAACAAATTTTCCTAATCTTTCTGTTCAAGCGCCATCTAC”: the binding signal (RPM ratio (pull-down/input)) was 0.346.
For the sequence “GATGATTGTTCTCCCAGCTGATGAATTTAGCCTTTCGAGTAAACAAATTTTCCTAATCTTTCTGTTCAAGCGCCATCTAC”, the binding signal (RPM ratio (pull-down/input)) came to 5.
The figure for “GATGATTGTTCTCCCAGCTGATGAATTGGCTCTCTCGAGTAAACAAATTTTCCTAATCTTTCTGTTCAAGCGCCATCTAC” is 0.341.
The same measure for “GATGATTGTTCTCCCAGCTGATGAATTCTCTGGGTCGAGTAAACAAATTTTCCTAATCTTTCTGTTCAAGCGCCATCTAC”: 0.165.
Take “GATGATTGTTCTCCCAGCTGATGAATTAGTTCTTTCGAGTAAACAAATTTTCCTAATCTTTCTGTTCAAGCGCCATCTAC”: the binding signal (RPM ratio (pull-down/input)) worked out at 0.409.
Take “GATGATTGTTCTCCCAGCTGATGAATTGGATCTTTCGAGTAAACAAATTTTCCTAATCTTTCTGTTCAAGCGCCATCTAC”: the binding signal (RPM ratio (pull-down/input)) turned out to be 0.239.
The same measure for “GATGATTGTTCTCCCAGCTGATGAATTCTGATGCTCGAGTAAACAAATTTTCCTAATCTTTCTGTTCAAGCGCCATCTAC”: 1.09.
“GATGATTGTTCTCCCAGCTGATGAATTCGGGGATTCGAGTAAACAAATTTTCCTAATCTTTCTGTTCAAGCGCCATCTAC”: the binding signal (RPM ratio (pull-down/input)) worked out at 0.395.
The same measure for “GATGATTGTTCTCCCAGCTGATGAATTACGTTTTTCGAGTAAACAAATTTTCCTAATCTTTCTGTTCAAGCGCCATCTAC”: 1.54; for “GATGATTGTTCTCCCAGCTGATGAATTCCGTGTGTCGAGTAAACAAATTTTCCTAATCTTTCTGTTCAAGCGCCATCTAC”: 1.62.
The same measure for “GATGATTGTTCTCCCAGCTGATGAATTCCGTTCCTCGAGTAAACAAATTTTCCTAATCTTTCTGTTCAAGCGCCATCTAC”: 0.625; for “GATGATTGTTCTCCCAGCTGATGAATTGGAAGCATCGAGTAAACAAATTTTCCTAATCTTTCTGTTCAAGCGCCATCTAC”: 0.654.
The same measure for “GATGATTGTTCTCCCAGCTGATGAATTGTTCCAATCGAGTAAACAAATTTTCCTAATCTTTCTGTTCAAGCGCCATCTAC”: 0.511; for “GATGATTGTTCTCCCAGCTGATGAATTAATTTTTTCGAGTAAACAAATTTTCCTAATCTTTCTGTTCAAGCGCCATCTAC”: 1.04.
As to “GATGATTGTTCTCCCAGCTGATGAATTCCCTTGTTCGAGTAAACAAATTTTCCTAATCTTTCTGTTCAAGCGCCATCTAC”, the binding signal (RPM ratio (pull-down/input)) worked out at 0.355.
The figure for “GATGATTGTTCTCCCAGCTGATGAATTCAATAACTCGAGTAAACAAATTTTCCTAATCTTTCTGTTCAAGCGCCATCTAC” is 0.488.

The values above are taken from paper PMC12820563.
